{
  "source": "the supplement of paper PMC6531468",
  "note": "Some of the results follow. Values come from read counts of a selection and are noisy. Scores sum up all selected molecules that hold the word; the word was not tested alone.",
  "data": [
    {"system": "IMP3 KH3-4", "sequence (chain, as listed by the source)": "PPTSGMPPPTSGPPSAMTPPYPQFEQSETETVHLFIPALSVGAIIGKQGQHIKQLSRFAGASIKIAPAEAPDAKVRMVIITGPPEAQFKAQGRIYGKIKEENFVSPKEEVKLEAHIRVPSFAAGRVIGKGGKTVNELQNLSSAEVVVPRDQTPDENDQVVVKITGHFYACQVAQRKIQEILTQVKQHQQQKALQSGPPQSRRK", "assay": "6-mer SELEX enrichment z-score vs GST control; IMP3 is the RNA-binding protein IGF2BP3; higher = more enriched by binding", "conditions": "construct: KH3-4 (377-579); SELEX round: R4", "method": "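SELEX-seq with GST-tagged IMP3 KH3-4 (Pro377-Lys579) and an N40 RNA pool, round 4. 6-mer z-score of sequence-tag enrichment normalised to the corresponding GST SELEX round; RNA k-mers written as DNA (T for U).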", "values": [
      {"sequence": "GTTGTG", "6-mer SELEX enrichment z-score": 0.006},
      {"sequence": "CCATCA", "6-mer SELEX enrichment z-score": 0.015},
      {"sequence": "CATTTG", "6-mer SELEX enrichment z-score": 0.362},
      {"sequence": "CCACCG", "6-mer SELEX enrichment z-score": -1.56},
      {"sequence": "CGAAAA", "6-mer SELEX enrichment z-score": -1.34},
      {"sequence": "CACCGT", "6-mer SELEX enrichment z-score": -0.8},
      {"sequence": "GGCCAG", "6-mer SELEX enrichment z-score": 0.933},
      {"sequence": "CAGTGA", "6-mer SELEX enrichment z-score": 0.169},
      {"sequence": "CGGCCC", "6-mer SELEX enrichment z-score": -0.001},
      {"sequence": "CGCCGC", "6-mer SELEX enrichment z-score": -0.396},
      {"sequence": "CTGGTT", "6-mer SELEX enrichment z-score": -0.05},
      {"sequence": "ACATGC", "6-mer SELEX enrichment z-score": 0.358},
      {"sequence": "CTCCGT", "6-mer SELEX enrichment z-score": -0.35},
      {"sequence": "CTCGGA", "6-mer SELEX enrichment z-score": -0.667},
      {"sequence": "TGGTGG", "6-mer SELEX enrichment z-score": 0.589},
      {"sequence": "TCTTCT", "6-mer SELEX enrichment z-score": 0.462},
      {"sequence": "ATAGAT", "6-mer SELEX enrichment z-score": 2.06},
      {"sequence": "CACCTT", "6-mer SELEX enrichment z-score": -0.412},
      {"sequence": "AGGTAG", "6-mer SELEX enrichment z-score": 0.037},
      {"sequence": "AACCCG", "6-mer SELEX enrichment z-score": -3.01},
      {"sequence": "TTGGTA", "6-mer SELEX enrichment z-score": -0.131},
      {"sequence": "GAGTCT", "6-mer SELEX enrichment z-score": -0.028},
      {"sequence": "GTCTGA", "6-mer SELEX enrichment z-score": -0.327},
      {"sequence": "TGACAT", "6-mer SELEX enrichment z-score": 0.665},
      {"sequence": "AGTTTA", "6-mer SELEX enrichment z-score": 0.297},
      {"sequence": "ATGAAG", "6-mer SELEX enrichment z-score": 1.5},
      {"sequence": "ATGGCC", "6-mer SELEX enrichment z-score": 0.502},
      {"sequence": "CACACG", "6-mer SELEX enrichment z-score": -0.296},
      {"sequence": "TTTTCA", "6-mer SELEX enrichment z-score": 1.35},
      {"sequence": "TTCTCG", "6-mer SELEX enrichment z-score": -0.264},
      {"sequence": "GAAGGT", "6-mer SELEX enrichment z-score": 0.222},
      {"sequence": "CGGCTT", "6-mer SELEX enrichment z-score": 0.767},
      {"sequence": "AAGACA", "6-mer SELEX enrichment z-score": 0.858},
      {"sequence": "TGCTGT", "6-mer SELEX enrichment z-score": 0.355},
      {"sequence": "GCGCCA", "6-mer SELEX enrichment z-score": -0.555},
      {"sequence": "TACCGG", "6-mer SELEX enrichment z-score": -0.244},
      {"sequence": "TCACCC", "6-mer SELEX enrichment z-score": -1.51},
      {"sequence": "ATGTGT", "6-mer SELEX enrichment z-score": 0.538},
      {"sequence": "CGAATA", "6-mer SELEX enrichment z-score": 0.567},
      {"sequence": "AGTATT", "6-mer SELEX enrichment z-score": 0.37}
    ]}
  ]
}
